The values that follow come from paper PMC10726135.

This is one part of the list. At the low end of the ranking, values are background and their order means little. Measured with an extract: partners may take part in the binding.

For this assay, the target named is T1, HNF4alpha2 (COS-7 nuclear extract) (UniProt P41235).
T1 sequence: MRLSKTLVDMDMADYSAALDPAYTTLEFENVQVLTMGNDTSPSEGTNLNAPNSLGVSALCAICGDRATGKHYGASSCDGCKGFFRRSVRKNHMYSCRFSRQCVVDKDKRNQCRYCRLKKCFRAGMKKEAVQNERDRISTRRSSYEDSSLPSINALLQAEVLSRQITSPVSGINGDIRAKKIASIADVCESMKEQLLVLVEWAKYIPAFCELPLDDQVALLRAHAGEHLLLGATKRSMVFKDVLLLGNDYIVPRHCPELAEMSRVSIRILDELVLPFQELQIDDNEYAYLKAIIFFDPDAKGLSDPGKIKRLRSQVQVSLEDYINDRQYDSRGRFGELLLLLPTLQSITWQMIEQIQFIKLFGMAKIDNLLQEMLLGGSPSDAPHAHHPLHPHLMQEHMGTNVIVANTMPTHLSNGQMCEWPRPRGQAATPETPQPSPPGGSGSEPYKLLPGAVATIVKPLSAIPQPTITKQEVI
The assay is described as follows: protein-binding microarray. Conditions: COS-7 nuclear extract on double-stranded Agilent 4x180k PBM; binding buffer, salt, pH and temperature not given; high values mean tight binding; double strand, one strand shown; sequences stand for … in …GCCTAGGGAGATTAGAGTATCGGTCGA
Take TAATCTTCCTTCGGGATTATGGTAGGCAGC: the binding signal (log2 normalized intensity) was 0.91.

As for CAGGTCAAAAGTTCAAACTTTATTTGATGA, the binding signal (log2 normalized intensity) was 2.99.

Consider ATGTCCTTTGGAGTGCTTTCATCTTTGCGG, for which the binding signal (log2 normalized intensity) stood at 1.16.

As for CAAACAAGTCAATGAGCATTTCACAATTCG, the binding signal (log2 normalized intensity) was -1.05.

For CTGGGGTCAATAGTTGTGTAAATAGCTCAG, the binding signal (log2 normalized intensity) turned out to be 1.71.

On to CAGGAGTGGGAGAAAGCTTTGGACTTTGGG, for which the binding signal (log2 normalized intensity) was found to be 4.59.

As to TCTCTTTGTTGACATCTGCTTCCAAAGAGC, the binding signal (log2 normalized intensity) was -1.19.

As for CAATCCTGGAGAAGGAGCACCAATGACCTT, the binding signal (log2 normalized intensity) worked out at 3.47.

With CGATATTAATGGTGACCCCTCAGTTTTTCT, the binding signal (log2 normalized intensity) worked out at 2.99.

Consider GCAGCGAGGACAACCAGAGGTCACTTTTAT, for which the binding signal (log2 normalized intensity) came out at 2.

In the case of GCGGCGCTGACCCCGGGAGCAGCATGGCCC, the binding signal (log2 normalized intensity) was 2.11.

For the sequence GGAGGCTGAGGTGGAAGGATCACCTGAGTC, the binding signal (log2 normalized intensity) is -1.11.

TGGCCTGGGAACTTAGCGATTTGGAACCCA: the binding signal (log2 normalized intensity) worked out at 0.829.

As to TTGCCCTTTCCTAGACGTAAGACAACATCT, the binding signal (log2 normalized intensity) was determined as 0.374.

Take GCTGACTGGTTGGAATTCCAGTGTTCACAT: the binding signal (log2 normalized intensity) is 1.49.

As to AGCGAGTTATCTGCATTCCAGCTCAATCAA, the binding signal (log2 normalized intensity) is -1.17.

For TAAAGGCTTTTGCAAGAAAACCAGCATGGT, the binding signal (log2 normalized intensity) was determined as 0.113.

Regarding AGCACCAGGGATAGCGCCCACACTGCCCAT, the binding signal (log2 normalized intensity) is -1.09.

Regarding ATCTGCCAACAGAGTCATCACAATAGGGAA, the binding signal (log2 normalized intensity) is -1.15.

Take CCCCCACACCATTAGAGAACATGTACTTTG: the binding signal (log2 normalized intensity) came out at 3.32.

Consider TCTGCTTGCCATTAATGAAAACTGCACTTC, for which the binding signal (log2 normalized intensity) was found to be 1.53.

Take ACAGGACAAATCAAGTGAAATGCCAACGGC: the binding signal (log2 normalized intensity) was -1.08.

For TTACCATGCCAGAACTTCTCATCTTATCTA, the binding signal (log2 normalized intensity) is -0.912.

On to CTGGGTTCAGTTACGGGGTGGTTTATCTGC, for which the binding signal (log2 normalized intensity) turned out to be 1.37.

As for GATAAAAGTGAGCAATGCTGAGTATGCAGC, the binding signal (log2 normalized intensity) was -1.06.

Take ACAATCTGAAGTCCCCTGTGCTTTGGCCAA: the binding signal (log2 normalized intensity) was found to be 1.2.

With AGGGCCTCTCTTCTTGTAATCCCATTTCCC, the binding signal (log2 normalized intensity) came out at 1.13.

For AGGTACAAACATACTTAGGATTTTTGTGCC, the binding signal (log2 normalized intensity) came to 0.442.

For the sequence CTAGGAGAGTGGACTCACAGCAGGAGGGCT, the binding signal (log2 normalized intensity) is -1.22.

On to TATGCTTTTATTTAACTTCTGGGGGCAAGG, for which the binding signal (log2 normalized intensity) came to 1.25.

For the sequence TGCTTATCAGTGTACCTGTCCCTACTCAAT, the binding signal (log2 normalized intensity) stood at 0.371.

Take AAGGCAGATTTCTGTCTTTGATCTGCTATC: the binding signal (log2 normalized intensity) is 0.746.

TAGAAGTATGTCTGGGATTTGAAGGAGCAG: the binding signal (log2 normalized intensity) was -1.11.

As for CACATTCCAGCTCTGTGACTTTACCTGAAA, the binding signal (log2 normalized intensity) is -1.06.

With TCTCTCAAGGTTCCCAGCTAAATAAATAAC, the binding signal (log2 normalized intensity) is -0.682.

TTGCGAGGTTCCATGGTGTAATGGTTAGCA: the binding signal (log2 normalized intensity) came to 1.38.

On to CTCTCGCCGAGGCCCCAGGAGACCCCGCGA, for which the binding signal (log2 normalized intensity) was determined as 1.82.

As for GGATCAAGTGGCAATAAACTCCGTTATCAC, the binding signal (log2 normalized intensity) is -0.451.

Take GAGTCCAGAGGTCAAGGCTGCAGCGAGCCA: the binding signal (log2 normalized intensity) worked out at 1.98.

With TGAAAGAGCTCAAATGACAGAACAGTCCAG, the binding signal (log2 normalized intensity) was -0.85.

Take GGATTATCACTGAATCGAGGCTATTCTGTA: the binding signal (log2 normalized intensity) is -1.05.

Take CAAAAAGTTGGTTGGAGCTATGGGCAGAAA: the binding signal (log2 normalized intensity) stood at 0.354.

Turning to AGAACCCATGCTCTTTGGCCTGGCATTTGA, the binding signal (log2 normalized intensity) came to 0.512.

Turning to ACAATGATGAAAGGAGCTTGGGAAGACAGA, the binding signal (log2 normalized intensity) is -1.07.

For the sequence CTCTCTCTCCTAACTATGGTCACGCGGCCA, the binding signal (log2 normalized intensity) was -0.665.

AGGCCGGGCCTCAAGGGAATCTGCTGTAAT: the binding signal (log2 normalized intensity) was -0.993.

In the case of GGGTTAGGCCTTTAGAGGATTTACTTATAC, the binding signal (log2 normalized intensity) is -0.0397.

Take AGAAAGTGAGGAATGCAACCACACCAACAT: the binding signal (log2 normalized intensity) is -1.11.

As to AAAGGTTGGGGGTGGGGAGGAAGCAAAATT, the binding signal (log2 normalized intensity) was -1.12.

Turning to TCTTTTGACCTTTGCCTCATTCTTATTGCC, the binding signal (log2 normalized intensity) came to 4.97.

As for CTGAAGAATTTGGACTTTGCACTAAAAGCC, the binding signal (log2 normalized intensity) amounted to 6.95.

Consider CGGCCTTTCCCGGCTGCCTAAGCACTTGGG, for which the binding signal (log2 normalized intensity) is -1.16.

Consider CTGGTGCTGCTACTTTAGCTGCCAGAGGTT, for which the binding signal (log2 normalized intensity) was -0.423.

Consider CCCAGACGCAGGCCTGCAAGCTCCTGGTTG, for which the binding signal (log2 normalized intensity) was -1.08.

Turning to AACGACCCTTGCTCTGTTTTCTGACGCAAC, the binding signal (log2 normalized intensity) came to 0.962.

GGCCCAAGATAAAGGGACAGGGGTCATCAG: the binding signal (log2 normalized intensity) was 2.57.

Turning to TTAGGCTGATGCCCTTTGGATTTAGGCAGT, the binding signal (log2 normalized intensity) was found to be 2.87.

For the sequence GCCTGAACAAACATGAGGGACTGGGAAGAG, the binding signal (log2 normalized intensity) was -1.13.

Take GAACGGGTCAAGAGGGACAAAATGCCCAGG: the binding signal (log2 normalized intensity) was -1.1.

For TTTGAACATTTTAACACAGGACAAATCAAG, the binding signal (log2 normalized intensity) amounted to 0.935.

For the sequence GAGACTGGAGAGACCAAAGGGTGAAATAGG, the binding signal (log2 normalized intensity) is -0.64.

For TGCTAGTAAGGGGAGGAGCTGAAACAGTCT, the binding signal (log2 normalized intensity) was -1.17.

For ACCCCACGGAGCTGCCTCACATGAGCTAGA, the binding signal (log2 normalized intensity) is -0.873.

TTTAAAGTATCCCATCCATTTCCCATCCCC: the binding signal (log2 normalized intensity) is 3.39.

For the sequence AGCATTGTGCTGAAAAGACTTCACAATCAA, the binding signal (log2 normalized intensity) is -1.14.

With CAGTGTTTGCTTTAGATTTTCTCACTCTAA, the binding signal (log2 normalized intensity) was 0.82.

As to GAAAGGGCAGAATCTAGGATAACTCTAGTG, the binding signal (log2 normalized intensity) was -1.22.

As for TTGCAGGCTGATAGGCAGAAGGGACTAGCC, the binding signal (log2 normalized intensity) is -1.14.

TGGACTCTGACCCATTCCTTCTCACCGGGT: the binding signal (log2 normalized intensity) was 3.88.

Take GCAAAGCCAATCTGCTTAAAGGCAAAGTCC: the binding signal (log2 normalized intensity) amounted to 3.57.

Take CCTCCCTCCATGCTGTAGATTGTGGAATGT: the binding signal (log2 normalized intensity) was determined as 1.81.

As for CGCATCTGAAGATAAGAGAAGTTGCTCTTT, the binding signal (log2 normalized intensity) amounted to 2.14.

AATCCTCAAAAATGCTTTACAAGGTGGTTG: the binding signal (log2 normalized intensity) was found to be 1.23.

AGACTTTGACCTCTGCTAGGTTTGGGTAAG: the binding signal (log2 normalized intensity) came out at 5.62.

On to AGTATCCGCCTTCACTCCCCTGACAGCATG, for which the binding signal (log2 normalized intensity) turned out to be 2.01.

For the sequence TCTCACTGGATGTGTACCTCATCTTCTTTC, the binding signal (log2 normalized intensity) was determined as 0.929.

For the sequence GGTTGGGGGTGGCTAATTACATCCAGAGTG, the binding signal (log2 normalized intensity) was -0.0915.

On to AGGTTATTCTTTCCCCTCCCTTCCACCTTT, for which the binding signal (log2 normalized intensity) turned out to be 3.94.

On to CACACATTAGCTTCCCGGCTGTCACAGCCT, for which the binding signal (log2 normalized intensity) was -1.13.

In the case of CTGAATGACCACATGCCCTCAGTACAGGGC, the binding signal (log2 normalized intensity) was -0.435.

Turning to TTTGCCCTGTCAGTCTCTCAATGATTGACA, the binding signal (log2 normalized intensity) is -1.14.

With CCTGATTGGTCATACTTGACCCACAGCTAG, the binding signal (log2 normalized intensity) is 1.81.

Take ATGCAAACACCTACATTCAAATCCTTGCTC: the binding signal (log2 normalized intensity) is -1.07.

CCCGCTCCACTCCGGGCGATCCGGGCTCCG: the binding signal (log2 normalized intensity) is -1.09.

As to AGGAAAGTCTCCCTCCCTTTGATCCCACAC, the binding signal (log2 normalized intensity) came to 3.06.

For the sequence TGCGCAAGTCCCAGAAGTTCTAAGGTGGGA, the binding signal (log2 normalized intensity) came to 0.449.

For the sequence GGTGATGAGTTCTTATCTAGGTAAGTATAG, the binding signal (log2 normalized intensity) came out at 1.65.

Turning to TAAATCAGAAGAAAAAGGTAAGGAGATAAG, the binding signal (log2 normalized intensity) was -1.22.

In the case of TTGCCTTATTTGAACACAGTTCGAACAGTT, the binding signal (log2 normalized intensity) worked out at 0.233.

For the sequence ATTTTGGAATGTCGCATAGCTCCTGGCTGG, the binding signal (log2 normalized intensity) is -1.06.

With GTTGCTGAAGGGCAGGGTTGGCTGTGGCAA, the binding signal (log2 normalized intensity) was 0.304.

As for GATATTGGCCAAAGGGCACAAGAGGAATTG, the binding signal (log2 normalized intensity) turned out to be 1.79.

In the case of CAAGAATCTTGATTACTATAGGGCAAATGG, the binding signal (log2 normalized intensity) is 1.4.
